Screen size: about 310,000 compounds; about 2,200 (0.71%) showed an effect of 50% or more. Effects have a minus sign here. This is one part of the list.

For this assay, the target named is human ether-à-go-go-related gene (hERG) potassium channel (human, UniProt Q12809). In words: primary screen, population patch clamp on CHO cells stably expressing hERG.
human ether-à-go-go-related gene (hERG) potassium channel, sequence (Q12809 whole entry, looked up): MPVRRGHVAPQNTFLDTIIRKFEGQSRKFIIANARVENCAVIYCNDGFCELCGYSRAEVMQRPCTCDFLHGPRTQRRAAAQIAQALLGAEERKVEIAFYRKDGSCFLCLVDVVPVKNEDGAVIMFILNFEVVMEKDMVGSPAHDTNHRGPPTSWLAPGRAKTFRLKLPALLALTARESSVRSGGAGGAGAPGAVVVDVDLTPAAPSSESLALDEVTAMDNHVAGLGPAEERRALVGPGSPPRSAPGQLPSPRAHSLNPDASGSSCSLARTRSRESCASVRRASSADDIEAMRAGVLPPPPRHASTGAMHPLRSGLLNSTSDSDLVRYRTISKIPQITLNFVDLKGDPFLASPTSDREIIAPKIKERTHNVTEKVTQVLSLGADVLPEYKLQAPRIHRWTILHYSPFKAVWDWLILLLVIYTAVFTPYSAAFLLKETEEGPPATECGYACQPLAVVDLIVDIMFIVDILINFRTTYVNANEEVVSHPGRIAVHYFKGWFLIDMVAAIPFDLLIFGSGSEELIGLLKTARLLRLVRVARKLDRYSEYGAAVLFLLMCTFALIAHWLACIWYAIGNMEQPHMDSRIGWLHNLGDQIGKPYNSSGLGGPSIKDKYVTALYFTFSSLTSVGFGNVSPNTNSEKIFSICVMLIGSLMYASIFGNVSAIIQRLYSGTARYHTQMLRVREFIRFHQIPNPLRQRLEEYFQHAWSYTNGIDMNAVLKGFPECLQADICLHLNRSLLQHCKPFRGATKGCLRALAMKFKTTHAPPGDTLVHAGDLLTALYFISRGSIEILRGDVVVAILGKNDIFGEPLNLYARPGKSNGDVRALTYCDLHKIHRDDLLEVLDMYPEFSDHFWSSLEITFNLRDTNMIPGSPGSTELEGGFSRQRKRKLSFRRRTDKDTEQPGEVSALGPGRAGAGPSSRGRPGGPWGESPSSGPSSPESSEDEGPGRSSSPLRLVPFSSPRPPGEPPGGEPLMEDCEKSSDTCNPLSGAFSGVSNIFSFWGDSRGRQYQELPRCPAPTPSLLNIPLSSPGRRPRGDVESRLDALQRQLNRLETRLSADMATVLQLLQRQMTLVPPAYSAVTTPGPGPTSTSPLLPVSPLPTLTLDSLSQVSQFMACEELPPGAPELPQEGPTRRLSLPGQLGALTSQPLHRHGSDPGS
As to `Cc1cc(OCC(O)CN2CCN(C)CC2)ccc1C(C)C.Cl` (stereo not shown), the “hERG current change (%, negative = inhibition) at 1uM” value is 11.7%.
Turning to `Cc1cc(C(=O)COc2cccnc2[N+](=O)[O-])c(C)n1Cc1ccco1`, the “hERG current change (%, negative = inhibition) at 1uM” value was 19.4%.
Consider `CC(C)CCNC(=O)C1CC(c2ccc(C(F)(F)F)cc2)=NO1` (stereo not shown), for which the “hERG current change (%, negative = inhibition) at 1uM” value was 20.6%.
With `CCOc1ccc(S(=O)(=O)c2c(C(=O)c3ccc(C)cc3)cnc3cc4c(cc23)OCCO4)cc1` the figure was 9.26%; with `CCC(C)C(=O)Nc1ccccc1N1CCN(c2ccc(F)cc2)CC1` (stereo not shown), 11.3%; with `O=C(NCCCN1CCOCC1)c1cccc(S(=O)(=O)Nc2cc(Cl)ccc2Cl)c1`, 7.66%.
Under `C#CCO[C@@H]1C[C@H](n2ccc(NC(=O)c3ccccc3)nc2=O)O[C@@H]1CO` stands 11.1%; under `CCOC(=O)C1(C)NC(c2cccc(C)c2)C2C(=O)N(c3ccccc3)C(=O)C21` (stereo not shown), -7.52%.
As to `Cc1cccc(N=C(NO)c2nonc2N)c1`, the “hERG current change (%, negative = inhibition) at 1uM” value came out at 10.4%.
With `CN(CC(=O)Nc1ccncc1)S(=O)(=O)c1ccc(Cl)cc1` the figure was 4.02%.
As to `C/C(=N\Nc1ccc(C(F)(F)F)cn1)c1ccc(S(=O)(=O)NCc2ccco2)cc1`, the “hERG current change (%, negative = inhibition) at 1uM” value is on record as 22.5%.
As to `Cc1oc(-c2ccccc2F)nc1CS(=O)CC(=O)NCc1ccccc1` (stereo not shown), the “hERG current change (%, negative = inhibition) at 1uM” value is listed as 5.96%.
Consider `CCOC(=O)Cc1c(C)nc2c(-c3ccccc3)c(C)[nH]n2c1=O`, for which the “hERG current change (%, negative = inhibition) at 1uM” value is reported as -4.28%.
With `CC(=O)N1CCN(c2nc(C)nc3sc4c(c23)CCC(C)C4)CC1` (stereo not shown), the “hERG current change (%, negative = inhibition) at 1uM” value is 1.17%.
Take `O=C1CSC(c2ccccn2)N1c1ccccc1` (stereo not shown): the “hERG current change (%, negative = inhibition) at 1uM” value turned out to be 0.503%.
On to `Cc1cc(C)nc(NC(=O)CCCC(=O)O)c1`, for which the “hERG current change (%, negative = inhibition) at 1uM” value amounted to 12%.
On to `COCCCN(CC(=O)O)S(=O)(=O)c1ccccc1`, for which the “hERG current change (%, negative = inhibition) at 1uM” value is 5.13%.
Under `CCOC(=O)N1N=C(c2ccccc2)CC1(O)C(F)(F)F` (stereo not shown) stands 4.26%; under `CC(C)CNC(=S)NC(=O)c1ccc(Cl)cc1Cl`, 3.27%; under `CCS(=O)(=O)N1CCN(C(=O)c2cc(OC)cc(OC)c2)CC1`, 12.7%.
For the compound `COc1ccc(NC(=O)c2cccc(Oc3ccc([N+](=O)[O-])cc3Cl)c2)cc1`, the “hERG current change (%, negative = inhibition) at 1uM” value is recorded as 14.1%.
For the compound `CS(=O)(=O)N(CC(=O)NCCSCc1ccccc1)c1ccc2c(c1)OCO2`, the “hERG current change (%, negative = inhibition) at 1uM” value is 8.85%.
Regarding `COc1ccc(/C=N/NC(=O)c2cccc(NC(C)=O)c2)c(OC)c1`, the “hERG current change (%, negative = inhibition) at 1uM” value was found to be 8.79%.
Consider `CC(C)c1ccc(S(=O)(=O)N2CCN(C(=O)c3cccc(F)c3)CC2)cc1`, for which the “hERG current change (%, negative = inhibition) at 1uM” value was found to be 12.8%.
With `O=C(CCl)Nc1cc(S(=O)(=O)N2CCOCC2)ccc1N1CCOCC1` the figure was 16.4%; with `CS(=O)(=O)N(CC(=O)Nc1ccc2c(c1)OCO2)c1ccc(Cl)cc1`, 15%; with `O=C(c1ccccc1)N1N=C(c2ccc(F)cc2)CC1(O)C(F)(F)F` (stereo not shown), 15.3%.
Take `CCOC(=O)N1CCN(C(=O)c2cn(C)c3ccc(S(=O)(=O)N4CCCC4)cc3c2=O)CC1`: the “hERG current change (%, negative = inhibition) at 1uM” value is given as 7.08%.
Take `COc1cc(CCCN2C(=O)C(=O)NC[C@@H]2Cc2ccc(O)cc2)cc(OC)c1OC`: the “hERG current change (%, negative = inhibition) at 1uM” value turned out to be 17.3%.
Turning to `CCCC(=O)Nc1ccc(OCC(O)CNC(C)C)c(C(C)=O)c1.Cl` (stereo not shown), the “hERG current change (%, negative = inhibition) at 1uM” value worked out at 9.12%.
Turning to `COc1ccc(NC(=O)NC2CC3CCCC(C2)N3Cc2ccccc2)cc1` (stereo not shown), the “hERG current change (%, negative = inhibition) at 1uM” value is -17.4%.
Under `Nc1cnn(C2OC(CO)C(O)C2O)c(=O)n1` (stereo not shown) stands 6.98%; under `CC(C)C[C@@]12C(=O)N(c3cccc(Br)c3)C(=O)N1[C@H](c1ccc(Cl)cc1)[C@@H]1C(=O)N(C3CCCCC3)C(=O)[C@@H]12`, -2.61%.
Take `O=C(Nc1ccc(F)c(Cl)c1)C1CC(=O)N(Cc2ccco2)C1` (stereo not shown): the “hERG current change (%, negative = inhibition) at 1uM” value came to 1.42%.
For the compound `Cc1ccc2nc(N(CCCN(C)C)C(=O)c3cc(-c4cccs4)nc4ccccc34)sc2c1.Cl`, the “hERG current change (%, negative = inhibition) at 1uM” value was found to be 4.73%.
Consider `CCOC(=O)c1[nH]c(C)c(C(=O)NCCc2ccc(OC)cc2)c1C`, for which the “hERG current change (%, negative = inhibition) at 1uM” value was 22.1%.
Regarding `COc1cc(NC(=O)C2=C(N3CCOCC3)/C(=C\c3ccc(Cl)cc3Cl)CC2)cc(OC)c1OC`, the “hERG current change (%, negative = inhibition) at 1uM” value was found to be 7.87%.
Consider `CCNC(=O)CSc1nc2sccc2c(=O)n1-c1ccccc1`, for which the “hERG current change (%, negative = inhibition) at 1uM” value was 15.5%.
With `COc1ccc(C(=O)N/C(=C/c2cccnc2)C(=O)NCc2ccco2)cc1OC` the figure was 14.4%; with `Cc1csc(NC(=O)CSc2nncs2)n1`, 8.29%.
Regarding `O=C(CCl)Nc1cc(-c2ccccc2)nn1-c1ccccc1`, the “hERG current change (%, negative = inhibition) at 1uM” value came out at 3.51%.
On to `O=C(NCc1ccccc1)c1ccc[nH+]c1.[Cl-]`, for which the “hERG current change (%, negative = inhibition) at 1uM” value came out at 12.3%.
Turning to `COc1ccc(N2C(=O)C(Cl)=C(Nc3c(C)n(C)n(-c4ccccc4)c3=O)C2=O)cc1`, the “hERG current change (%, negative = inhibition) at 1uM” value was found to be 7.79%.
Regarding `Cc1ccc(-n2nc(C(=O)c3ccccc3)n3c(=O)c(Cc4ccccc4)nnc23)cc1`, the “hERG current change (%, negative = inhibition) at 1uM” value is reported as 6.38%.
Regarding `Nc1nonc1-n1nnc(C(=O)N/N=C/c2ccccc2)c1CSc1ccc(Cl)cc1`, the “hERG current change (%, negative = inhibition) at 1uM” value is listed as -4.8%.
With `CC(C)N(C(=O)Nc1ccc2nsnc2c1)C(C)C`, the “hERG current change (%, negative = inhibition) at 1uM” value came to 6.78%.
As for `N#Cc1ccc(Oc2nc(Nc3ccc(F)cc3)nc(N3CCCC3)n2)cc1`, the “hERG current change (%, negative = inhibition) at 1uM” value amounted to 2.01%.
For `Cc1csc(N/N=C/c2c(F)cccc2Cl)n1`, the “hERG current change (%, negative = inhibition) at 1uM” value was determined as 7.98%.
With `CC(=O)Nc1nc(C)c(Oc2ccc(C)cc2)c(=O)[nH]1`, the “hERG current change (%, negative = inhibition) at 1uM” value is recorded as 12.3%.
On to `CCN(CC)S(=O)(=O)c1ccc(NC(=O)COC(=O)c2cnc(C)cn2)cc1`, for which the “hERG current change (%, negative = inhibition) at 1uM” value is 16.4%.
Consider `CC1(C)CCc2cc(-c3ccnc(=S)[nH]3)ccc2O1`, for which the “hERG current change (%, negative = inhibition) at 1uM” value worked out at 22.5%.
In the case of `Cc1ccc(OCCOC(=O)Cn2nc(C)c([N+](=O)[O-])c2C)cc1`, the “hERG current change (%, negative = inhibition) at 1uM” value worked out at 6.95%.
With `COCCn1c(C)cc(C(=O)CSc2nc3nc(C)cc(C)n3n2)c1C`, the “hERG current change (%, negative = inhibition) at 1uM” value is reported as -1.42%.
Consider `O=C(c1ccccc1NS(=O)(=O)c1cccs1)N1CCCC1`, for which the “hERG current change (%, negative = inhibition) at 1uM” value is reported as 13.8%.
`C#CCN(C#N)c1nc(NCC)nc(NC(C)C)n1`: the “hERG current change (%, negative = inhibition) at 1uM” value worked out at 6.89%.
As to `Cc1[nH]c(C)c(S(=O)(=O)N2CCN(c3ccc(Cl)cc3)CC2)c1C(=O)N1CCCC1`, the “hERG current change (%, negative = inhibition) at 1uM” value is -44.2%.
`CCCN1CCN(C2CCCCC2NS(=O)(=O)c2ccccc2)CC1` (stereo not shown): the “hERG current change (%, negative = inhibition) at 1uM” value is reported as -6.79%.
For the compound `COc1ccc(NC(=O)[C@@]2(CC(=O)O)CC(/C=C/c3ccccc3)=NO2)cc1`, the “hERG current change (%, negative = inhibition) at 1uM” value worked out at 24.9%.
Consider `COc1cccc(C2c3c(oc4ccccc4c3=O)C(=O)N2c2ccccn2)c1` (stereo not shown), for which the “hERG current change (%, negative = inhibition) at 1uM” value amounted to 0.551%.
Under `COCCN(C(=O)CSc1nc2ccccc2o1)c1c(N)n(Cc2ccccc2)c(=O)[nH]c1=O` stands -4.44%; under `CC(C)(C)N1NC2(CCCCC2)NC1=S`, -0.414%.
With `CCCCN1C(N)=NC[C@@H]1C(C)O` (stereo partly shown), the “hERG current change (%, negative = inhibition) at 1uM” value is 14.1%.
With `CC(C)C[C@H](NC(=O)c1nc[nH]c1C(=O)N1CCC(C)CC1)C(=O)OCc1ccccc1`, the “hERG current change (%, negative = inhibition) at 1uM” value stood at 13.1%.
With `Cc1cc(C)n(-c2ccc(C(=O)OC(C)C)cc2)n1`, the “hERG current change (%, negative = inhibition) at 1uM” value is listed as 4.09%.
Turning to `COc1ccc(NC(=S)NC2CCN(Cc3ccccc3)CC2)cc1OC`, the “hERG current change (%, negative = inhibition) at 1uM” value came to 54.9%.
Take `NNC(=O)c1cc2cc3ccccc3nc2s1`: the “hERG current change (%, negative = inhibition) at 1uM” value came to 8.54%.
Regarding `CC1CCN(CCCNC(=O)c2n[nH]c(=O)c3ccccc23)CC1`, the “hERG current change (%, negative = inhibition) at 1uM” value is 10.2%.
`O=C(Nc1ccccc1Cl)c1ccccc1Oc1ccc(C(F)(F)F)cc1[N+](=O)[O-]`: the “hERG current change (%, negative = inhibition) at 1uM” value was 9.49%.
As to `COc1cc(CCC(=O)NCc2ccc(F)cc2)cc(OC)c1OC`, the “hERG current change (%, negative = inhibition) at 1uM” value came to 14%.
With `CNC(=O)c1cccc(NC(=O)C(C)c2ccc3cc(OC)ccc3c2)c1` (stereo not shown) the figure was 11.3%.
With `CCn1nc(C(=O)NCc2ccco2)c(Cl)c1Cl` the figure was 6.69%; with `Cc1cc(NC(=O)CCC(=O)N(c2ccc(F)cc2)C(C(=O)NC2CCCC2)c2ccccc2)no1` (stereo not shown), 21%.
Under `COc1ccc(NC(=O)c2sc(NC(=O)COc3ccccc3)nc2C)cc1` stands 13.9%; under `Cc1cc(Nc2ccc3c(c2)OCCO3)c2cccc(C)c2n1.Cl`, -7.12%; under `Cc1ccc(CCNC(=O)C2CCC(=O)N(Cc3ccccc3F)C2)o1` (stereo not shown), 1.01%.
As for `O=C(COC(=O)C1(c2ccccc2)CC1)NNC(=O)c1ccccc1`, the “hERG current change (%, negative = inhibition) at 1uM” value is on record as 2.02%.
Turning to `Oc1ccccc1C1=NN(c2ccccc2)C(c2ccc(F)cc2)C1` (stereo not shown), the “hERG current change (%, negative = inhibition) at 1uM” value came out at 6.18%.
On to `O=C(Nc1ccon1)Nc1ccccc1C(F)(F)F`, for which the “hERG current change (%, negative = inhibition) at 1uM” value is reported as 19%.
For the compound `Cc1cccc2sc(NC(=O)C3CCN(S(=O)(=O)c4cc([N+](=O)[O-])ccc4Cl)CC3)nc12`, the “hERG current change (%, negative = inhibition) at 1uM” value is on record as 7.26%.
Take `Cn1c(CC(=O)Nc2ccccc2)nnc1SCCOc1ccccc1`: the “hERG current change (%, negative = inhibition) at 1uM” value is reported as 4.76%.
With `Cc1cc(C)n(CCc2nc(-c3cc4ccccc4o3)cs2)n1` the figure was 5.19%; with `c1ccc(-c2cc3ccccc3nc2N2CCCC2)cc1`, 10.7%; with `CC(=O)NCCCCCCNC(C)=O`, 5.3%.
With `Cn1c(=O)c(=O)n(C)c2cc(S(=O)(=O)N3CCN(Cc4ccccc4)CC3)ccc21` the figure was -28.8%; with `CCOc1ccc(N(CC(=O)N2CCN(c3ccccc3F)CC2)S(=O)(=O)c2c(C)noc2C)cc1`, 8.98%; with `CC1CC(=O)c2cnc(Nc3cccc(C(F)(F)F)c3)nc2C1` (stereo not shown), 10.9%.
Consider `CN1CCN(S(=O)(=O)c2ccc(NC(=O)c3cccc(F)c3)cc2)CC1`, for which the “hERG current change (%, negative = inhibition) at 1uM” value is reported as 10.1%.
For `O=C(NNC(=O)C1[C@H]2CCCC[C@@H]12)c1ccc(=O)oc1` (stereo partly shown), the “hERG current change (%, negative = inhibition) at 1uM” value worked out at 13.6%.
